According to patent US5994629A, “Positive selection” (priority 1991, dated 1999):

Legend:
Assay type in all cases: cell-based
GUS+ tobacco leaf discs = assay: Effect of ammonium nitrate on shoot formation from BA3GN treated leaf discs, GUS+
From the text: (§1) The methods used were the same as those described in Example 3, with the exception that Gamborg B5 substrate was used instead of MSO substrate.

GUS- tobacco leaf discs = assay: Effect of ammonium nitrate on shoot formation from BA3GN treated leaf discs, GUS-; conditions: pH 7
From the text: as §1

[1] = test system: wild type tobacco leaf discs co-cultivated with Agrobacterium; assay: Positive selection of transformed shoots using BA3GN sodium salt
tobacco leaf discs = assay: Inhibition by SL of shoot formation induced by BA and BA3GN sodium salt; conditions: BA 0.5 mg/l, BA3GN sodium salt 15 mg/l
[2] = test system: tobacco leaf discs co-cultivated with Agrobacterium; assay: Positive selection combined with negative selection
From the text: In addition, the experiment included selection using BA3GN sodium salt together with saccharo 1,4-lactone (SL) (a strong specific inhibitor of the introduced β-glucuronidase).
The methods used were essentially as described below in Example 13, but Gamborg B5 substrate was used instead of MSO substrate.
The experiment with BA together with kanamycin, which is the traditional negative selection system, was repeated as two independent experiments with 54 leaf discs per experiment. A single GUS-positive shoot was detected among a total of 23 selected shoots. The results for BA3GN sodium salt were obtained using 324 leaf discs. The experiment with SL (saccharo 1,4-lactone) was performed once with a total of 162 leaf discs.

[3] = 7.5 mg/l BA3GN, ammonium nitrate 25 mM, pH 7
[4] = 7.5 mg/l BA3GN, ammonium nitrate 35 mM, pH 7
[5] = 7.5 mg/l BA3GN, ammonium nitrate 55 mM, pH 7
[6] = 7.5 mg/l BA3GN, ammonium nitrate 65 mM, pH 7
[7] = 15 mg/l BA3GN, ammonium nitrate 25 mM, pH 7
[8] = 15 mg/l BA3GN, ammonium nitrate 35 mM, pH 7
[9] = 15 mg/l BA3GN, ammonium nitrate 45 mM, pH 7
[10] = 15 mg/l BA3GN, ammonium nitrate 55 mM, pH 7
[11] = 15 mg/l BA3GN, ammonium nitrate 65 mM, pH 7
[12] = 30 mg/l BA3GN, ammonium nitrate 25 mM, pH 7
[13] = 30 mg/l BA3GN, ammonium nitrate 35 mM, pH 7
[14] = 30 mg/l BA3GN, ammonium nitrate 45 mM, pH 7
[15] = 30 mg/l BA3GN, ammonium nitrate 55 mM, pH 7
[16] = 30 mg/l BA3GN, ammonium nitrate 65 mM, pH 7
[17] = 7.5 mg/l, BS10, B5 + ammon. + SL
[18] = 7.5 mg/l, Both strains, average
[19] = 7.5 mg/l, LDH1, B5 + ammon. + SL
[20] = 7.5 mg/l, strain BS10, co-cultivation substrate B5
[21] = 15 mg/l, BS10, B5 + ammon. + SL
[22] = 15 mg/l, LDH1, BS + ammon. + SL
[23] = kanamycin 0 mg/l, BA3GN sodium salt 15 mg/l
[24] = kanamycin 0 mg/l, BA3GN sodium salt 15 mg/l + SL (10 mM)
[25] = kanamycin 33 mg/l, BA3GN sodium salt 15 mg/l
[26] = kanamycin 100 mg/l, BA3GN sodium salt 15 mg/l
[27] = kanamycin 300 mg/l, BA 1 mg/l or BA3GN sodium salt 15 mg/l

## O=C([O-])[C@H]1O[C@@H](n2cnc(NCc3ccccc3)c3ncnc2-3)[C@H](O)[C@@H](O)[C@@H]1O.[Na+]
GUS+ tobacco leaf discs; [3]
  Sel. factor (GUS+/GUS- shoots): > 4 x
  number of shoots, GUS+: 4
GUS+ tobacco leaf discs; [4]
  Sel. factor (GUS+/GUS- shoots): 6 x
  number of shoots, GUS+: 6
GUS+ tobacco leaf discs; 7.5 mg/l BA3GN, ammonium nitrate 45 mM, pH 7
  number of shoots, GUS+: 0
GUS+ tobacco leaf discs; [5]
  Sel. factor (GUS+/GUS- shoots): > 14 x
  number of shoots, GUS+: 14
GUS+ tobacco leaf discs; [6]
  Sel. factor (GUS+/GUS- shoots): > 2 x
  number of shoots, GUS+: 2
GUS+ tobacco leaf discs; 7.5 mg/l BA3GN, line 'Average'
  Sel. factor (GUS+/GUS- shoots): 26 x
GUS+ tobacco leaf discs; 7.5 mg/l BA3GN, line 'Average' over ammonium nitrate 25-65 mM
  number of shoots, GUS+: 26
GUS+ tobacco leaf discs; [7]
  Sel. factor (GUS+/GUS- shoots): 17 x
  number of shoots, GUS+: 33
GUS+ tobacco leaf discs; [8]
  Sel. factor (GUS+/GUS- shoots): 7 x
  number of shoots, GUS+: 50
GUS+ tobacco leaf discs; [9]
  Sel. factor (GUS+/GUS- shoots): 3 x
  number of shoots, GUS+: 20
GUS+ tobacco leaf discs; [10]
  Sel. factor (GUS+/GUS- shoots): > 34 x
  number of shoots, GUS+: 34
GUS+ tobacco leaf discs; [11]
  Sel. factor (GUS+/GUS- shoots): 4 x
  number of shoots, GUS+: 8
GUS+ tobacco leaf discs; 15 mg/l BA3GN, line 'Average'
  Sel. factor (GUS+/GUS- shoots): 9 x
GUS+ tobacco leaf discs; 15 mg/l BA3GN, line 'Average' over ammonium nitrate 25-65 mM
  number of shoots, GUS+: 145
GUS+ tobacco leaf discs; [12]
  Sel. factor (GUS+/GUS- shoots): 2 x
  number of shoots, GUS+: 73
GUS+ tobacco leaf discs; [13]
  Sel. factor (GUS+/GUS- shoots): 2 x
  number of shoots, GUS+: 73
GUS+ tobacco leaf discs; [14]
  Sel. factor (GUS+/GUS- shoots): 2 x
  number of shoots, GUS+: 57
GUS+ tobacco leaf discs; [15]
  Sel. factor (GUS+/GUS- shoots): 3 x
  number of shoots, GUS+: 37
GUS+ tobacco leaf discs; [16]
  Sel. factor (GUS+/GUS- shoots): 1 x
  number of shoots, GUS+: 25
GUS+ tobacco leaf discs; 30 mg/l BA3GN, line 'Average'
  Sel. factor (GUS+/GUS- shoots): 2 x
GUS+ tobacco leaf discs; 30 mg/l BA3GN, line 'Average' over ammonium nitrate 25-65 mM
  number of shoots, GUS+: 265
GUS- tobacco leaf discs; 7.5 mg/l BA3GN, ammonium nitrate 25 mM
  number of shoots, GUS-: 0
GUS- tobacco leaf discs; 7.5 mg/l BA3GN, ammonium nitrate 35 mM
  number of shoots, GUS-: 1
GUS- tobacco leaf discs; 7.5 mg/l BA3GN, ammonium nitrate 45 mM
  number of shoots, GUS-: 0
GUS- tobacco leaf discs; 7.5 mg/l BA3GN, ammonium nitrate 55 mM
  number of shoots, GUS-: 0
GUS- tobacco leaf discs; 7.5 mg/l BA3GN, ammonium nitrate 65 mM
  number of shoots, GUS-: 0
GUS- tobacco leaf discs; 15 mg/l BA3GN, ammonium nitrate 25 mM
  number of shoots, GUS-: 2
GUS- tobacco leaf discs; 15 mg/l BA3GN, ammonium nitrate 35 mM
  number of shoots, GUS-: 7
GUS- tobacco leaf discs; 15 mg/l BA3GN, ammonium nitrate 45 mM
  number of shoots, GUS-: 6
GUS- tobacco leaf discs; 15 mg/l BA3GN, ammonium nitrate 65 mM
  number of shoots, GUS-: 2
[1]; 7.5 mg/l, BS10, B5 + ammon.
  % GUS+ shoots among total shoots: 0.7%
[1]; [17]
  % GUS+ shoots among total shoots: 6.l
  GUS+ shoots per leaf disc: 0.3
[1]; 7.5 mg/l, BS10, average
  % GUS+ shoots among total shoots: 4.4%
  GUS+ shoots per leaf disc: 0.1
[1]; [18]
  % GUS+ shoots among total shoots: 5.1%
  GUS+ shoots per leaf disc: 0.2
[1]; 7.5 mg/l, LDH1, B5
  % GUS+ shoots among total shoots: 7.8%
  GUS+ shoots per leaf disc: 0.2
[1]; 7.5 mg/l, LDH1, B5 + ammon.
  % GUS+ shoots among total shoots: 5.3%
  GUS+ shoots per leaf disc: 0.2
[1]; [19]
  % GUS+ shoots among total shoots: 4.7%
  GUS+ shoots per leaf disc: 0.2
[1]; 7.5 mg/l, LDH1, average
  % GUS+ shoots among total shoots: 5.9%
  GUS+ shoots per leaf disc: 0.2
[1]; [20]
  % GUS+ shoots among total shoots: 6.6%
  GUS+ shoots per leaf disc: 0.1
[1]; 15 mg/l, BS10, B5
  % GUS+ shoots among total shoots: 6.0%
  GUS+ shoots per leaf disc: 0.3
[1]; 15 mg/l, BS10, B5 + ammon.
  % GUS+ shoots among total shoots: 8.7%
  GUS+ shoots per leaf disc: 0.4
[1]; [21]
  % GUS+ shoots among total shoots: 5.5%
  GUS+ shoots per leaf disc: 0.3
[1]; 15 mg/l, BS10, average
  % GUS+ shoots among total shoots: 6.7%
  GUS+ shoots per leaf disc: 0.3
[1]; 15 mg/l, Both strains, average
  % GUS+ shoots among total shoots: 7.4%
  GUS+ shoots per leaf disc: 0.3
[1]; 15 mg/l, LDH1, B5
  % GUS+ shoots among total shoots: 9.0%
  GUS+ shoots per leaf disc: 0.4
[1]; 15 mg/l, LDH1, B5 + ammon.
  % GUS+ shoots among total shoots: 7.6%
  GUS+ shoots per leaf disc: 0.3
[1]; [22]
  % GUS+ shoots among total shoots: 7.7%
  GUS+ shoots per leaf disc: 0.3
[1]; 15 mg/l, LDH1, average
  % GUS+ shoots among total shoots: 8.1%
  GUS+ shoots per leaf disc: 0.3
Tobacco leaf discs; SL 0 mM
  Number of regenerated shoots per leaf disc: 5.6
  relative number of regenerated shoots per leaf disc: 100%
Tobacco leaf discs; SL 16 mM
  Number of regenerated shoots per leaf disc: 1.4
  relative number of regenerated shoots per leaf disc: 25%
[2]; [23]
  GUS+ shoots among total shoots, %: 7.4%
  GUS+ shoots among total shoots, compared to BA + Kanamycin: 1.7 x
  GUS+ shoots per leaf disc, No.: 0.3
  GUS+ shoots per leaf disc, compared to BA + Kanamycin: 30 x
[2]; [24]
  GUS+ shoots among total shoots, %: 0.9%
  GUS+ shoots among total shoots, compared to BA + Kanamycin: 0.2 x
[2]; [25]
  GUS+ shoots among total shoots, %: 4.7%
  GUS+ shoots among total shoots, compared to BA + Kanamycin: 1.1 x
  GUS+ shoots per leaf disc, No.: 0.4
  GUS+ shoots per leaf disc, compared to BA + Kanamycin: 40 x
[2]; [26]
  GUS+ shoots among total shoots, %: 3.2%
  GUS+ shoots among total shoots, compared to BA + Kanamycin: 0.7 x
  GUS+ shoots per leaf disc, No.: 0.2
  GUS+ shoots per leaf disc, compared to BA + Kanamycin: 20 x
[2]; [27]
  GUS+ shoots among total shoots, %: 47.1%
  GUS+ shoots among total shoots, compared to BA + Kanamycin: 11 x
  GUS+ shoots per leaf disc, No.: 0.1
  GUS+ shoots per leaf disc, compared to BA + Kanamycin: 10 x
